# Results taken from PubChem BioAssay AID504332 (National Center for Advancing Translational Sciences (NCATS), 2011).
# About 31,000 (8.9%) of roughly 350,000 compounds were called active. Inconclusive means that the source gave no clear call. Such entries were picked first, then a sample of the others. The call rests on the fitted dose curve; in most records, active means well fitted inhibition curve with a large enough effect; inconclusive means small, poorly fitted or top-dose-only effect; inactive means no such curve, though single readings can be large or run the other way. Where the call is inconclusive, the potency comes from a doubtful curve fit.
# Biological target: Histone-lysine N-methyltransferase EHMT2 (Homo sapiens) (UniProt Q96KQ7)
# Experiment: qHTS Assay for Inhibitors of Histone Lysine Methyltransferase G9a; further: nearly all actives have a fitted effect of over 75% in size
# Conditions: G9a H3K9 monomethylation, AlphaScreen, 2 h; activity, negative = inhibition: at 59 µM (top of the series) unless noted
# Procedure, shortened: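 Chemiluminescent proximity detection of H3K9 monomethylation, read after 10 min bead incubation in the dark. Reaction: 20 nM G9a, 500 nM biotin-H3K9 peptide, 20 uM SAM cofactor, 2 h, room temperature, following 15 min enzyme-compound preincubation.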
# On the % scale 0 is the no-effect control and ±100 the full control effect; potency means the concentration at half of the fitted maximal effect; tags describe the fitted curve by direction and shape.
# UniProt Q96KQ7, sequence (Q96KQ7 whole entry, looked up): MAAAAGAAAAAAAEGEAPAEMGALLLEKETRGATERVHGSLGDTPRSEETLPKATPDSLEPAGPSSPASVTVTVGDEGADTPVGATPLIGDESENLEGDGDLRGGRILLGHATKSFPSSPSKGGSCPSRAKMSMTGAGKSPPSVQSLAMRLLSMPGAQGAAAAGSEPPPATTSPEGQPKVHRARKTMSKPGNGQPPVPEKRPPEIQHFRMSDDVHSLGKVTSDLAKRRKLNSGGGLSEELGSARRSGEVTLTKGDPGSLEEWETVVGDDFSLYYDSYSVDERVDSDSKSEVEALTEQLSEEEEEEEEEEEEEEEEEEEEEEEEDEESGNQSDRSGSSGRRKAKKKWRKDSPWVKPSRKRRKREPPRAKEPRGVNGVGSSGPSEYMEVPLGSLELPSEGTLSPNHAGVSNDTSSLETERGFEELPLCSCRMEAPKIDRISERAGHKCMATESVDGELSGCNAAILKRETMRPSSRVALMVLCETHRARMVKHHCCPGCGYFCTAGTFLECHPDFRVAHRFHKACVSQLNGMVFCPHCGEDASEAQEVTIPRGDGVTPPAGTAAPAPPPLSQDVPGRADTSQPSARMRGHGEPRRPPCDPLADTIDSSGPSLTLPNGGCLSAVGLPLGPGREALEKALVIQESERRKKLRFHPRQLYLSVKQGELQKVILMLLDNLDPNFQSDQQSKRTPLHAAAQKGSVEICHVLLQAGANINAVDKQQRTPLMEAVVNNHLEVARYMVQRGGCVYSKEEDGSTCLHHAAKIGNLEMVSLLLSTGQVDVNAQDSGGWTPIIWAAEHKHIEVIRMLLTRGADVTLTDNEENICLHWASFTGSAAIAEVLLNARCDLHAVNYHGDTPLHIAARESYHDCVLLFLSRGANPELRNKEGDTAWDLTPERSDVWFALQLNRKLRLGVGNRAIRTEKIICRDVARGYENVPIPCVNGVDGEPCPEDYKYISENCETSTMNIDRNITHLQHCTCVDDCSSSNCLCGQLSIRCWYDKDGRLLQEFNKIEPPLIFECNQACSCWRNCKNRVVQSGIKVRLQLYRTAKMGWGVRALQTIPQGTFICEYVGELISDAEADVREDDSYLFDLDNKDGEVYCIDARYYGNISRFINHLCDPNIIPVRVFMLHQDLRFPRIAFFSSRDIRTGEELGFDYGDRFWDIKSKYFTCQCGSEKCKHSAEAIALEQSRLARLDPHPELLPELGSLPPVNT
SMILES,Potency,"activity, negative = inhibition"
O=C(COC(=O)Cn1cc(C(F)(F)F)ccc1=O)Nc1ccc(Br)cc1F,"inconclusive: 70.8 µM [inhibitor, partial curve, poor fit]",
CCOC(=O)c1sc(NC(=O)CCc2ccc(OC)cc2)nc1C,"inconclusive: 79.4 µM [inhibitor, single point]",
O=S(=O)(c1ccc(F)cc1)c1nc(-c2ccco2)oc1Nc1ccccc1,"inconclusive: 28.2 µM [inhibitor, single point]",
N#Cc1ccsc1NC(=O)CCc1ccccc1,active: 25.1 µM,
CCCCN(C)C1CCN(C(=S)Nc2ccc(OC)cc2)CC1,"inconclusive: 50.1 µM [inhibitor, partial curve, poor fit]",
COc1ccccc1/C=N/NC(=O)COCC(=O)N/N=C/c1ccccc1OC,"inconclusive: 22.4 µM [inhibitor, partial curve, poor fit]",
Cc1cc(C)cc(NC2=C(c3ccccc3)C(=O)c3ccccc32)c1,active: 8.91 µM,
COc1ccc(S(=O)(=O)N2CCN(CC(=O)NCCc3cccs3)CC2)cc1,"inconclusive: 2 µM [inhibitor, partial curve, poor fit]",
CCOc1ncccc1C(=O)OC(C)C(=O)Nc1ccc(CC)cc1 (centres undefined),inactive,
COc1cccc(CNC(=O)CCNS(=O)(=O)c2cccs2)c1,"inconclusive: 70.8 µM [inhibitor, single point]",
COc1cc2[nH]c3c(=O)n(CCN4CCOCC4)cnc3c2cc1OC,"inconclusive: 44.7 µM [inhibitor, partial curve, poor fit]",
CCOC(=O)n1c(=O)oc2cc(S(=O)(=O)N3CCCCC3)ccc21,"inconclusive: 31.6 µM [inhibitor, single point]",
O=C(/C=C/c1ccc(OCc2c(F)cccc2Cl)cc1)N1CCOCC1,"inconclusive: 70.8 µM [inhibitor, partial curve, poor fit]",
O=C(N=C1SC2CS(=O)(=O)CC2N1CCc1ccccc1)C1CC1 (centres undefined),inactive,
CCc1cccc(C)c1NC(=O)C1CCN(c2nn3c(=O)cc(C)nc3s2)CC1,inactive,
COc1cccc(-c2sc3ccc(OC)cc3c2-c2ccc(O)cc2)c1,,inactive: 7.72% [at 0.501 µM]
CC(C(=O)O)n1cc(Cl)cn1 (centres undefined),"inconclusive: 31.6 µM [inhibitor, single point]",
NC(=O)C1CCN(c2oc(-c3ccccc3F)nc2S(=O)(=O)c2ccc(Cl)cc2)CC1,,inconclusive: -69.8% [inhibitor]
CC(=O)Oc1ccc(-c2csc(Nc3ccc(Cl)cn3)n2)cc1,inactive,
